Results as given in paper PMC7139218, “Structural Basis for Rab8a Recruitment of RILPL2 via LRRK2 Phosphorylation of Switch 2” (Structure(London, England:1993), 2020).
Residue numbers refer to the chain shown, from its start. These are yes or no findings as the source states them, for the method shown. In cells and extracts the contact can be indirect. Some entries that bind do so weakly or less than the wild type. Tags and fused reporters may be left off the sequences shown.

The chains behind the UniProt entries cited, without tags or fusion partners.
UniProt P61006: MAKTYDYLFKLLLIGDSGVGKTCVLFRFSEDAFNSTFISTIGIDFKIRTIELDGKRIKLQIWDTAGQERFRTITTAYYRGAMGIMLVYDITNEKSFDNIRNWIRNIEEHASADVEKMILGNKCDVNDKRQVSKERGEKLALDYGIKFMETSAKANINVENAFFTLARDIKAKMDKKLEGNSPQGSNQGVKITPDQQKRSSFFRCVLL

Legend:
Experiment in all cases: co-IP; HEK293 cells co-expressing Flag-LRRK2 (R1441G or Y1699C), HA-Rab and GFP-tagged effector, no MLi-2; GFP fusion precipitated with GFP binder Sepharose, 1 h, washed in 50 mM Tris-HCl pH 7.5, 150 mM NaCl; immunoblot
RILPL2-GFP R132E (human) = molecular target: T1, RILPL2-GFP R132E (human) (UniProt Q969X0)
T1 sequence: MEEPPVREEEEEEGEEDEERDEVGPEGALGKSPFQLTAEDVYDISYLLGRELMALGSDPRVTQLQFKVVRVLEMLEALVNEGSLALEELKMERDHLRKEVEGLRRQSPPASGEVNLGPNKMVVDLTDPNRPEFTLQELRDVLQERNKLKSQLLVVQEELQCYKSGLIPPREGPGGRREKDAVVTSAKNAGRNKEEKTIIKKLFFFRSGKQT

RILPL2-GFP R139E (human) = molecular target: T2, RILPL2-GFP R139E (human) (UniProt Q969X0)
T2 sequence: T1 sequence with E132R, R139E

JIP3-GFP (full length) = molecular target: T3, JIP3-GFP (full length) (UniProt Q9UPT6)
T3 sequence: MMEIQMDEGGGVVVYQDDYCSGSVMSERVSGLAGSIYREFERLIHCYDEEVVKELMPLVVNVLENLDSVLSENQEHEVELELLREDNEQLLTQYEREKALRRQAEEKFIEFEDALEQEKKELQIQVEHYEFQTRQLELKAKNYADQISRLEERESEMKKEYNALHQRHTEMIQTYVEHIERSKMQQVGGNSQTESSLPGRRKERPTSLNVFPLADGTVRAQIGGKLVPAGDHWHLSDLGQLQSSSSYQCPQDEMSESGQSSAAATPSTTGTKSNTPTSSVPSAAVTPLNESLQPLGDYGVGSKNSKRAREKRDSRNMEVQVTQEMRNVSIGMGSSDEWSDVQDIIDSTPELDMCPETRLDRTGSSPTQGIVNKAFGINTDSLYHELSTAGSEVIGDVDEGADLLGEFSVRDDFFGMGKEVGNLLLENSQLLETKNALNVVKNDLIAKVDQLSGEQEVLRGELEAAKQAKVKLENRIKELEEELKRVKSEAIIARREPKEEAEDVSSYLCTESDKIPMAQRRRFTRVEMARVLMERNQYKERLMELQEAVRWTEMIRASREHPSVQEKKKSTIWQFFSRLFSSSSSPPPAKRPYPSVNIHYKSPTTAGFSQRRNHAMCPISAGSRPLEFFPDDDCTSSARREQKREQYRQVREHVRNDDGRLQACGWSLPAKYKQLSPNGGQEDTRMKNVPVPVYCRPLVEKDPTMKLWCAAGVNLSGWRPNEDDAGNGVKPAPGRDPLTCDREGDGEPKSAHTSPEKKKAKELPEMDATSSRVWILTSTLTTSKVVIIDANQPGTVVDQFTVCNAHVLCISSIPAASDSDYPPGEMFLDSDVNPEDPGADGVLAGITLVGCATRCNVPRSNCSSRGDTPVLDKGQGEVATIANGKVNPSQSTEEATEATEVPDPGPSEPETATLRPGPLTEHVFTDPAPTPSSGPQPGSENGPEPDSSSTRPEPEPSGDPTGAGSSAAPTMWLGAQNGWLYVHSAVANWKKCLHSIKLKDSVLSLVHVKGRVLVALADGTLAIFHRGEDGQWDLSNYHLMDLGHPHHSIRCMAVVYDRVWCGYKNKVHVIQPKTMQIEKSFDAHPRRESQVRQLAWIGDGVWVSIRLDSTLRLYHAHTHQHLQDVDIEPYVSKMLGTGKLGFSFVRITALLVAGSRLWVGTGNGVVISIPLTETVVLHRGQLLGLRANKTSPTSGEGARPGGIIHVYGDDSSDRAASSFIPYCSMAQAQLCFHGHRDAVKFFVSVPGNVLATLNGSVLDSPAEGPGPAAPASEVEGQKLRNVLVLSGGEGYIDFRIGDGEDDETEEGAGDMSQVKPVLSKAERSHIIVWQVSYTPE

RILPL2-GFP K149A (human) = molecular target: T4, RILPL2-GFP K149A (human) (UniProt Q969X0)
T4 sequence: T1 sequence with E132R, K149A

RILPL2-GFP R139A (human) = molecular target: T5, RILPL2-GFP R139A (human) (UniProt Q969X0)
T5 sequence: T1 sequence with E132R, R139A

## HA-Rab8a WT, LRRK2-phosphorylated (pT72) (from UniProt P61006 1-207)
RILPL2-GFP R132E (human)
  binding: no binding
RILPL2-GFP R139E (human)
  binding: binds
JIP3-GFP (full length)
  binding: binds weakly
RILPL2-GFP K149A (human)
  binding: no binding
RILPL2-GFP R139A (human)
  binding: binds
